From the supplement of paper PMC4166925
± gives the standard deviation of the averaged measurements. Over roughly 33,000 sequences, “E-score (dimensionless, -0.5 to 0.5)” has its median near -0.049; the highest 2% begin near 0.37. Some of the results follow.

The sequences below were run on T1, PmTbr T-box DNA-binding domain (GST fusion) (assay: PBM E-score of 8-mer (E-score (dimensionless, -0.5 to 0.5)); Tbr is Tbrain of the sea star Patiria miniata (Pm) or the sea urchin Strongylocentrotus purpuratus (Sp); higher = stronger binding preference; most listed sequences are background and not binding sites). Settings: the construct has about 5 more residues each side.
T1 sequence: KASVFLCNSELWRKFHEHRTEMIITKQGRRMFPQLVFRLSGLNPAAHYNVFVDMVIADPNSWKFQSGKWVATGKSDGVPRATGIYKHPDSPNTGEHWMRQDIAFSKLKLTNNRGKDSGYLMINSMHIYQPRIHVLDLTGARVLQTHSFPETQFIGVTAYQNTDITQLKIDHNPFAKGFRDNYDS
In short: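 Universal Agilent oligonucleotide arrays, made double-stranded by primer extension, were incubated with 200 nM GST-fused Tbr T-box DNA-binding domain in PBS (pH 7.5). The protein was expressed in BL21 E. coli at 20 °C and purified by glutathione affinity chromatography. After scanning and quantification, the Universal PBM Analysis Suite assigned an enrichment E-score to each ungapped 8-mer, averaged over duplicate arrays.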

Row | Sequence | PBM E-score of 8-mer
1 | CCATCAAA | -0.251 ± 0.023
2 | GTATCATA | -0.11 ± 0.025
3 | AAGCCTTC | -0.134 ± 0.025
4 | CTGGACTC | -0.211 ± 0.064
5 | ACGTCAGA | 0.216 ± 0.034
6 | CGGTGAAG | -0.0517 ± 0.041
7 | CCATCTCA | 0.00782 ± 0.0042
8 | CAAGTCGC | 0.255 ± 0.025
9 | ACGAGCAC | -0.214 ± 0.049
10 | ACCTTCAA | -0.061 ± 0.055
11 | AGAAATTG | -0.00433 ± 0.049
12 | CCATCGCA | 0.0546 ± 0.056
13 | GGCCTATA | -0.309 ± 0.022
14 | CTACTCTC | -0.145 ± 0.014
15 | ATACGCTC | -0.274 ± 0.025
16 | AATTTTAG | 0.0676 ± 0.077
17 | AGTGCGGC | 0.131 ± 0.023
18 | CGTTGGTC | -0.0238 ± 0.016
19 | CCTTTCGC | 0.294 ± 0.004
20 | ACTCCTAT | -0.108 ± 0.057
21 | CACCGTAG | 0.085 ± 0.031
22 | CGCCCGCG | 0.0694 ± 0.093

Row | Sequence | PBM E-score of 8-mer
23 | CGGGTACA | 0.0659 ± 0.028
24 | CGTTGGTA | -0.0221 ± 0.009
25 | CACATGTA | 0.0564 ± 0.0057
26 | CCCAGTTA | -0.118 ± 0.0092
27 | ACCGCCCG | 0.0764 ± 0.061
28 | CTGTATTA | -0.151 ± 0.032
29 | AGTCTCAT | -0.0455 ± 0.027
30 | AAGTCGGG | -0.0479 ± 0.11
31 | GACTTTGA | -0.173 ± 0.038
32 | CCCAGTGA | -0.125 ± 0.033
33 | ATAATATC | -0.0229 ± 0.0089
34 | CTAGGGAA | -0.181 ± 0.0033
35 | CTATTGGA | -0.164 ± 0.013
36 | CTCGACAC | 0.387 ± 0.029
37 | ACATGCAC | 0.0987 ± 0.024
38 | CCGTAGGC | -0.193 ± 0.055
39 | GACAGCCC | -0.00908 ± 0.0068
40 | GTCACCGA | 0.127 ± 0.041
41 | GGATAGTA | -0.0109 ± 0.031
42 | CTGATTAC | -0.168 ± 0.037
43 | TATTAGCA | 0.17 ± 0.06
44 | CCCCATCG | -0.304 ± 0.061

Row | Sequence | PBM E-score of 8-mer
45 | CGGACATA | -0.11 ± 0.087
46 | ATACGGCC | -0.391 ± 0.012
47 | GGTCGATA | 0.0375 ± 0.069
48 | CGACTCCA | -0.0615 ± 0.08
49 | GAGATGAC | 0.0523 ± 0.043
50 | GCCAAATA | 0.0324 ± 0.0096
51 | GTGGTGCA | 0.0543 ± 0.079
52 | GCCGATCC | -0.178 ± 0.01
53 | AACCAGAC | -0.263 ± 0.1
54 | CCATCTGC | 0.011 ± 0.019
55 | AGTGCAAC | 0.238 ± 0.0035
56 | GTGCTCGA | -0.104 ± 0.0041
57 | GTGTGGTA | 0.183 ± 0.028
58 | AAACGCAA | -0.101 ± 0.045
59 | GAGCATCC | -0.164 ± 0.042
60 | CGCAATAC | 0.0143 ± 0.042
61 | CCGTCCAG | -0.169 ± 0.041
62 | CCGCGTAG | -0.125 ± 0.067
63 | TAACGCAA | 0.13 ± 0.051
64 | GTGCCATA | 0.312 ± 0.038
65 | GATGATGC | 0.0614 ± 0.021
66 | GCTAAGCC | -0.15 ± 0.082

Row | Sequence | PBM E-score of 8-mer
67 | GGATACTA | -0.177 ± 0.009
68 | ACACAGGC | 0.0712 ± 0.046
69 | GAACGTTA | -0.1664 ± 0.0012
70 | AAGAGTGG | 0.0969 ± 0.083
71 | GGAACCAA | -0.15 ± 0.051
72 | GATCCCCC | -0.194 ± 0.037
73 | GGTCTAGA | -0.0924 ± 0.012
74 | CATTACGG | 0.00889 ± 0.07
75 | GCGCATAC | -0.0655 ± 0.018
76 | CACGGTAA | -0.0651 ± 0.02
77 | CTCCTCAA | -0.204 ± 0.024
78 | CGCTAGCC | 0.0208 ± 0.035
79 | GTTCCCAA | -0.171 ± 0.054
80 | CCGATATA | -0.22 ± 0.089
81 | CTCCCCAA | -0.12 ± 0.0034
82 | AATTATTA | 0.0781 ± 0.037
83 | ATCTAAAG | -0.0721 ± 0.13
84 | CCGTTCAG | -0.125 ± 0.0045
85 | AGTTGCCG | 0.198 ± 0.034
86 | CTTAGGCC | -0.236 ± 0.042
